The source of these data is PubChem BioAssay AID463173 (ICCB-Longwood Screening Facility, Harvard Medical School, 2010).

Each structure is given as a SMILES string. The campaign covered roughly 52,000 compounds. About 1,700 (3.3%) were called active. Cut-off read from the data, not from the text of the source: active = survival mostly below about 52% (no sharp cut-off); inactive = mostly above about 56%. The list shows a part of the results.

This assay deals with Wild type. The assay can be described thus: S. aureus survival, RN4220 and DeltatarO strains – OD600, teichoic acid synthesis inhibitors, primary screen (AID 463173). The note with it: S. aureus RN4220 wild type/DeltatarO growth, OD600, 18 h, stronger effect = lower value, screened at 18.75 µg/mL (by protocol).
Turning to `CC(=O)Nc1ccc(NC(=O)c2ccc3c(c2)CCN3S(=O)(=O)c2ccc(C)cc2)cc1`, the survival was inactive: 90%.

Regarding `Cc1ccc(-c2nnc(Nc3ccc(OCC(N)=O)cc3)c3ccccc23)cc1S(=O)(=O)NCC1CCCO1` (centres undefined), the survival is inactive: 166%. For `O=C(CCn1cnc2onc(-c3ccc(F)cc3)c2c1=O)Nc1cccc(C(F)(F)F)c1`, the survival was inactive: 80%. As to `Cc1noc(Cn2c(=O)c3ccccc3n(CC(=O)Nc3cc(Cl)ccc3C)c2=O)n1`, the survival was inactive: 70%. The figure for `CCOC(=O)c1[nH]c2ccccc2c1NC(=O)c1ccc(C)c(C)c1` is inactive: 84%; for `O=C(CSc1n[nH]c(-c2ccccc2)n1)N1CCN(c2ccc(F)cc2)CC1` it is inactive: 65%; for `CCC(C(=O)NCCc1ccc(OC)c(OC)c1OC)n1nc(C)c2sc3ccccc3c2c1=O` (centres undefined) it is inactive: 106%. For the molecule `Cc1ccc(CNC(=O)C2CCN(C(=O)N3CC(C)Oc4ccc(Cl)cc43)CC2)cc1` (centres undefined), the survival was inactive: 96%. The figure for `Cc1ccc(-n2c(=O)c3c(cnn3C)n(CC(=O)Nc3cccc(Cl)c3)c2=O)cc1` is inactive: 64%; for `CCOc1ccccc1NC(=O)CN1C(=O)CC(c2ccc(C)c(C)c2)=Nc2ccccc21` it is inactive: 91%.

For the molecule `CCOc1ccc(NC(=O)c2ccc3c(=O)n4c(nc3c2)CCCCC4)cc1`, the survival is inactive: 152%.

For the molecule `Cc1cc(C)cc(NC(=O)C(C)N2Cc3ccccc3C2=O)c1` (centres undefined), the survival was inactive: 63%. With `Cc1ccc(C)c(N2CCN(CCCNC(=O)c3cnn(-c4cccc(Cl)c4)c3C3CCN(C(=O)OC(C)(C)C)CC3)CC2)c1`, the survival was inactive: 64%. The figure for `CCc1ccccc1NC(=O)CCn1cccn1` is inactive: 131%. The figure for `Cc1ccc(CSc2nc3ccccc3c3nc(CCn4c(C)nc5ccccc54)nn23)cc1` is inactive: 73%; for `O=C(Nc1cccc2ccccc12)OCCn1nnnc1CN1CCOCC1` it is inactive: 115%. In the case of `CCCNC(=O)CN1C(=O)COc2ccc(S(=O)(=O)N3CCCCCC3)cc21`, the survival was inactive: 80%.

On to `O=C(NCc1cccc(Br)c1)C1CCCCN1S(=O)(=O)c1ccc(F)cc1` (centres undefined), for which the survival is inactive: 70%. The figure for `COc1cccc(NC(=O)C(C)n2c(=O)cc(C(F)(F)F)c3c(C)nn(C)c32)c1` (centres undefined) is inactive: 75%; for `CC(C)Oc1ccc(CNC(=O)C(C)n2ccc3cc(S(=O)(=O)N4CCCCCC4)ccc32)cc1` (centres undefined) it is inactive: 69%; for `CCc1ccc(CNC(=O)CN2C(=O)C3CCCCN3c3ccc(C(=O)N4CCCC4)cc32)cc1` (centres undefined) it is inactive: 71%. The figure for `CC1CCN(S(=O)(=O)c2ccc3c(c2)N(C)C(=O)CC(=O)N3C)CC1` is inactive: 74%; for `COc1ccc(OCc2nc3ccccc3n2Cc2ccc(C(C)(C)C)cc2)cc1` it is active: 0%; for `CCOc1ccccc1NC(=O)Cn1c(=O)nc(-c2ccccc2F)c2cc(Cl)ccc21` it is inactive: 72%.

Take `COc1ccccc1NC(=O)c1cc2c(-c3ccccc3)nn(-c3ccccc3)c2s1`: the survival is inactive: 77%.

In the case of `CCc1ccccc1NC(=O)Cn1c(=O)n(C(C)C)c(=O)c2oc3ccccc3c21`, the survival is inactive: 94%. As to `CCN(CC)C(=O)Cn1c(SCC(=O)Nc2ccc(F)cc2)nc2ccccc21`, the survival was inactive: 73%. In the case of `COCCNC(=O)c1ccc(Cn2c(SCC(N)=O)nc3ccccc3c2=O)cc1`, the survival is inactive: 82%.

Take `CCOC(=O)CSc1nc(-c2cccnc2)nn1C(=O)c1ccccc1`: the survival is inactive: 111%. The figure for `Cc1cc(=O)n2nc(N3CCC(C(=O)Nc4ccc(Br)c(C)c4)CC3)sc2n1` is inactive: 94%; for `CCOc1ccccc1C(=O)NCc1ccc2c(c1)CCN2C(=O)c1ccc(F)cc1` it is inactive: 77%. The figure for `COc1ccc2c(CNC3CCC(C)CC3)c(C(=O)O)n(Cc3ccc(F)cc3)c2c1` (centres undefined) is inactive: 84%; for `COc1cccc(OCCSc2nc3ccccc3n2CC(=O)N2CCOCC2)c1` it is inactive: 81%. For the molecule `Cc1ccc(N(Cc2cccs2)C(=O)c2ccc(OC(C)C)cc2)cc1`, the survival was inactive: 106%.

As to `Cn1c(SCc2ccc(F)cc2)nc2ccc(C(=O)NCc3cccc(Cl)c3)cc21`, the survival is inactive: 86%. The figure for `COc1ccc2[nH]c(=O)c(CN(Cc3ccc4c(c3)OCO4)Cc3nnnn3CCc3ccccc3)cc2c1` is inactive: 113%; for `CCN(C(=O)c1c(C)oc2ncnc(N3CCCCC3)c12)c1cc(C)ccc1C` it is inactive: 66%; for `COc1ccc(-c2noc(CN(C(=O)c3ccc(C)cc3C)C(C)C)n2)cc1` it is active: 0%. The figure for `CCOC(=O)c1ccccc1NC(=O)CSc1ccc(-c2sc(C)nc2C)nn1` is inactive: 81%; for `Cc1ccc(C(=O)NCCc2csc(-c3cccc(F)c3)n2)cc1C` it is inactive: 78%. The figure for `CCOC(=O)c1cnc2c(ccc3ccccc32)c1Nc1ccccc1O` is inactive: 74%. As for `CCOC(=O)c1cccc(NC(=O)COc2ccc3c(C)cc(=O)oc3c2)c1`, the survival was inactive: 74%. The figure for `COc1ccc(C2CC(=O)Nc3c2c(C)nn3-c2nncc(-c3ccccc3)n2)c(OC)c1OC` (centres undefined) is inactive: 86%. As for `COc1cc2nc(NCCc3cccc(C)c3)n3nc(-c4ccccc4)nc3c2cc1OC`, the survival is inactive: 77%. The figure for `CCOc1ccccc1C(=O)Nc1cccc(-c2nc3ccccc3s2)c1` is inactive: 48%; for `CC1=C(C#N)c2nc(N)c(C#N)c(C)c2/C1=C\C=C\c1ccccc1` it is inactive: 117%. The figure for `Cc1cc(C)cc(NC(=O)NCc2noc3ccccc23)c1` is inactive: 87%; for `CCC(=O)N1CCCc2cc(S(=O)(=O)N3CCC(C(=O)NC4CCC(C)CC4)CC3)ccc21` (centres undefined) it is inactive: 124%.

Turning to `Cc1ccc(C)c(NC(=O)c2cnc(N3CCCC3)nc2C)c1`, the survival was inactive: 67%.

`O=C(OCc1cc(=O)n2nc(C3CC3)sc2n1)c1cccc(NC(=O)c2ccccc2Cl)c1`: the survival is inactive: 57%.

For `COc1ccc(-c2cn3c(n2)sc2cc(C(=O)NCCc4ccccc4)ccc23)cc1`, the survival is inactive: 106%. The figure for `COc1ccccc1/C=C/c1nc(C#N)c(NCc2ccccc2)o1` is inactive: 95%. As for `CCc1ccccc1N(CC)C(=O)c1cc2c(s1)-c1ccccc1SC2`, the survival is active: -1%. The figure for `Cc1cccc(CNC(=O)C2CCN(c3nn4cc(-c5ccc(F)cc5)nc4s3)CC2)c1` is inactive: 60%. For `COc1ccc(-n2ncc(C(=O)NCc3cccs3)c2C2CCN(C(=O)OC(C)(C)C)CC2)cc1`, the survival was inactive: 71%. For `O=C(Cc1ccc(Cl)cc1)NC1CC(=O)N(c2ccc3c(c2)OCCO3)C1` (centres undefined), the survival is inactive: 58%. For the molecule `CC1CCN(C(=O)Cn2cc(SCC(=O)NCc3ccccc3)c3ccccc32)CC1`, the survival was inactive: 86%. The figure for `CCOc1ccc(C(c2c(O)cc(C)n(Cc3ccco3)c2=O)N2CCN(C)CC2)cc1` (centres undefined) is inactive: 66%; for `Cc1cc(C)nc(Oc2ccc(Br)cc2Br)n1` it is inactive: 117%; for `CCOc1ccc(-c2cn3c(n2)sc2cc(C(=O)NC(C)C45CC6CC(CC(C6)C4)C5)ccc23)cc1` (centres undefined) it is inactive: 126%. The figure for `N#C/C(=C\Nc1cccc(C(F)(F)F)c1)C(=O)N1CCOCC1` is inactive: 111%. On to `Cn1nnc2cc(C(=O)N3CCCCCC3)ccc21`, for which the survival was inactive: 112%. For the molecule `CCC(Sc1nnc(-c2ccc(F)cc2)c(-c2ccc(F)cc2)n1)C(=O)NC1CCCC1` (centres undefined), the survival is inactive: 63%. `CCc1nnc(NC(=O)c2nc(SCc3cccc(C)c3)ncc2Cl)s1`: the survival was inactive: 56%. The figure for `O=S(=O)(c1ccccc1)n1nc(-c2ccco2)nc1NCc1ccccc1` is inactive: 84%; for `Cc1cccc(-n2ncc3c(NCCOCCO)ncnc32)c1` it is inactive: 73%; for `CC(Nc1oc(-c2ccc(COc3ccccc3)o2)nc1C#N)c1ccccc1` (centres undefined) it is inactive: 77%. The figure for `COc1cccc(N2CC(NC(=O)/C=C\c3ccccc3)CC2=O)c1` (centres undefined) is inactive: 88%; for `O=C(CSc1nc2c([nH]c3ccccc32)c(=O)n1-c1ccccc1F)Nc1cccc(Cl)c1` it is inactive: 81%; for `CCC(=O)N1CCc2cc(S(=O)(=O)CCC(=O)Nc3cc(Cl)ccc3OC)ccc21` it is inactive: 73%. The figure for `O=C(CSc1nc2ccccc2c(=O)n1Cc1ccco1)Nc1ccccc1` is inactive: 106%; for `COc1ccc(CNC(=O)C2CCN(S(=O)(=O)c3cccc(-c4noc(C)n4)c3)CC2)cc1` it is inactive: 76%; for `O=C(c1cc2sccc2n1Cc1ccccc1)N1CCCC1` it is inactive: 125%. `Cc1cccc(Cn2c(CN3CCC(C(=O)NC(C)C)CC3)cc3ccccc32)c1`: the survival was inactive: 81%. The figure for `COc1ccc(C2C(C(=O)Nc3ccccc3)=C(C)Nc3nc(-c4ccc(Cl)cc4)nn32)cc1` (centres undefined) is inactive: 111%; for `Cc1ccccc1CNCCCSc1nnnn1C` it is inactive: 98%.

As to `Cc1ccc(NC(=O)CSCc2cc(=O)c3ccccc3[nH]2)c(C)c1`, the survival was inactive: 135%. On to `CCOc1ccc(CNC(=O)c2cc3c(=O)oc4ccc(C)cc4c3s2)cc1`, for which the survival is inactive: 91%.

Turning to `COc1ccc(-c2cn3c(n2)sc2cc(C(=O)NCCCN4CCN(C)CC4)ccc23)cc1`, the survival is inactive: 108%. For the molecule `Cc1ccc(-n2c(=O)c3c(C)c(C(=O)N(C)C)sc3n(Cc3ccccc3C)c2=O)cc1C`, the survival was inactive: 73%. The figure for `COc1ccc(Cn2c(CO)cnc2SCc2ccccc2)cc1` is inactive: 69%; for `O=C(COCc1cc(-c2ccc(F)cc2)on1)Nc1cccc(C(F)(F)F)c1` it is inactive: 77%; for `CCCOc1ccc(C2C(=O)N(C3CCCCC3)CC(=O)N2C2CCCCC2)cc1OC` (centres undefined) it is inactive: 77%. The figure for `CCC(C)Nc1nc(OC(C(F)(F)F)C(F)(F)F)nc(N(CC)CC)n1` (centres undefined) is inactive: 101%; for `Cc1cccc(Nc2nc(-c3ccccc3)nc3ccccc23)c1` it is active: -1%. The figure for `O=C(O)C(=Cc1ccc(-c2cccc(C(F)(F)F)c2)o1)C(=O)O` is inactive: 107%; for `Cc1cccc(OC(=O)CSc2nnc(-c3cccs3)o2)c1C` it is inactive: 82%; for `Cc1ccc(-n2ncc(C(=O)N3CCN(c4ccccc4F)CC3)c2C2CCN(C(=O)OC(C)(C)C)CC2)cc1C` it is inactive: 68%.

On to `CSc1ncc(Cl)c(C(=O)Nc2c(C(=O)c3ccc(Cl)cc3)oc3ccccc23)n1`, for which the survival is inactive: 92%.
